From the CheMixHub ionic liquid set
± gives the uncertainty stated by the source. Further values from the same series stand in other lists.

Experiment: xn = mol fraction of the nth substance listed

CCCCCC[n+]1ccn(C)c1.C[C@H](N)C(=O)[O-] + O
100 kPa, x1 = 0.01801
Settings	viscosity [mPa·s]
293.15 K	2.103 ± 0.019
298.15 K	1.827 ± 0.017
303.15 K	1.595 ± 0.017
308.15 K	1.408 ± 0.015
313.15 K	1.255 ± 0.014
318.15 K	1.113 ± 0.014
323.15 K	1.006 ± 0.013
328.15 K	0.914 ± 0.013

CCOS(=O)(=O)[O-].CC[n+]1ccn(C)c1 + O
Settings	viscosity [mPa·s]
293.15 K, 101 kPa, x1 = 0.151	7.07 ± 0.15
293.15 K, 101.3 kPa, x1 = 0.002698	1.107 ± 0.071
298.15 K, 101 kPa, x1 = 0.003	0.93 ± 0.02
298.15 K, 101 kPa, x1 = 0.047	2.18 ± 0.05
298.15 K, 101.3 kPa, x1 = 0.001795	0.96 ± 0.071
298.15 K, 101.3 kPa, x1 = 0.002698	0.987 ± 0.071
303.15 K, 101 kPa, x1 = 0.047	1.91 ± 0.04
303.15 K, 101.3 kPa, x1 = 0.001795	0.845 ± 0.071
303.15 K, 101.3 kPa, x1 = 0.002698	0.876 ± 0.071
303.15 K, 101.3 kPa, x1 = 0.003589	0.899 ± 0.071
308.15 K, 101.3 kPa, x1 = 0.001795	0.751 ± 0.071
308.15 K, 101.3 kPa, x1 = 0.002698	0.788 ± 0.071
308.15 K, 101.3 kPa, x1 = 0.003589	0.811 ± 0.071
313.15 K, 101 kPa, x1 = 0.003	0.68 ± 0.02
313.15 K, 101 kPa, x1 = 0.008	0.78 ± 0.02
313.15 K, 101 kPa, x1 = 0.013	0.86 ± 0.02
313.15 K, 101 kPa, x1 = 0.019	0.99 ± 0.02
313.15 K, 101 kPa, x1 = 0.151	3.97 ± 0.08
313.15 K, 101 kPa, x1 = 0.642	22.5 ± 0.5
313.15 K, 101.3 kPa, x1 = 0.001795	0.679 ± 0.071
313.15 K, 101.3 kPa, x1 = 0.002698	0.709 ± 0.071
313.15 K, 101.3 kPa, x1 = 0.003589	0.727 ± 0.071
328.15 K, 100 kPa, x1 = 0.008007	0.5856 ± 0.0042
328.15 K, 100 kPa, x1 = 0.009969	0.6066 ± 0.0044
328.15 K, 100 kPa, x1 = 0.01406	0.6467 ± 0.005
328.15 K, 100 kPa, x1 = 0.0162	0.6557 ± 0.0053
